We go through 69 compounds from PubChem BioAssay AID488969 (Vanderbilt High Throughput Screening Facility, 2010).

Over roughly 110,000 compounds, “z-score” has its median near -0.1; the highest 2% begin near 2. This is one part of the list.

The target of this assay is Metabotropic glutamate receptor 8 (Rattus norvegicus) (UniProt P70579). Description: mGluR8 Gi/Go-coupled signaling modulation – cell-based, rat, thallium flux, HTS, primary screen (AID 488969). As to conditions: HEK293 rat mGluR8, GIRK (G protein-gated inwardly rectifying potassium channel) thallium flux, FluoZin2; at 10 µM; stronger effect = higher value; submaximal glutamate (EC20) added with thallium.
UniProt P70579, sequence (P70579 whole entry, looked up): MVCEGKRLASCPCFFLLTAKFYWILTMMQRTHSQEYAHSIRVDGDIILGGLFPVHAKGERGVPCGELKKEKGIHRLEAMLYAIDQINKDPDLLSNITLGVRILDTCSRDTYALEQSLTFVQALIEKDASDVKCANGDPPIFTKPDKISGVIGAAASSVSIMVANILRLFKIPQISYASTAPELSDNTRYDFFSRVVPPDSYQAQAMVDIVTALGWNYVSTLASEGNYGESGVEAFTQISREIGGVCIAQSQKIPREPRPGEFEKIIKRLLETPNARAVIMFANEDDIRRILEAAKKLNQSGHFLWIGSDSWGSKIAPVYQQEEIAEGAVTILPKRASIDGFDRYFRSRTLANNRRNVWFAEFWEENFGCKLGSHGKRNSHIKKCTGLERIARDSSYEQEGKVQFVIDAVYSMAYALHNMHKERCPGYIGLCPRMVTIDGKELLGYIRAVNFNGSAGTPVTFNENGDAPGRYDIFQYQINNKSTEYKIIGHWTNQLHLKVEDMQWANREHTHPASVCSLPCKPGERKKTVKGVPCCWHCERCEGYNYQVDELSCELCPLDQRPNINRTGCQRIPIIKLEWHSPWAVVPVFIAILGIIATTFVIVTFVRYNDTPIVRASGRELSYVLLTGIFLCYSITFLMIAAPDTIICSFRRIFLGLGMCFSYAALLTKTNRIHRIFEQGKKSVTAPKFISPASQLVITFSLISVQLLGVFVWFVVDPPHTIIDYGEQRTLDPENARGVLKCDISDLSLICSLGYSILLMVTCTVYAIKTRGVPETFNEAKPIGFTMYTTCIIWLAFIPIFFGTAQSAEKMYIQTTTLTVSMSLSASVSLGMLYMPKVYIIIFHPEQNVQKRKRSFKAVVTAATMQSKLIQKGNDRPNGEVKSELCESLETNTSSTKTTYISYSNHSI
`O=C(N1CCN(c2ccccc2)CC1)C(F)(F)C(F)F` showed a z-score of -0.395.
`CCOC(=O)c1sc(NC(=O)c2c(C)nn(Cc3ccccc3)c2C)cc1C` yielded a z-score of -0.786.
Under `COc1ccc(C(=O)N2c3ccccc3CC2C)cc1OC` (centres undefined) stands -0.0572; under `O=C(/C=C/c1ccccc1)N/C(=C/c1ccccc1)C(=O)NCCCO`, -0.106; under `Cc1nonc1NC(=O)Nc1cccnc1`, 0.0982.
As for `CC(=O)c1ccc(NC(=O)c2ccc(CSc3ccccc3)o2)cc1`, the figure is -0.442.
Under `O=C(Nc1ccc(-c2noc(-c3cccs3)n2)cc1)c1cccnc1` stands 0.207.
The compound `COc1ccc(C2CC(c3ccccc3)=NN2C(=O)COC(=O)c2cccnc2)cc1` (centres undefined) yielded a z-score of 0.0851.
In turn, `COc1ccccc1CC1(C)NC(=O)N(CC(=O)N2CC(C)OC(C)C2)C1=O` (centres undefined) yielded a z-score of -0.479.
Under `COc1ccc(OC)c(CNc2ccc(F)c(Cl)c2)c1` stands 0.0546; under `CC(=O)N(CCC(Cc1ccccc1)c1ccc2c(c1)OCO2)Cc1ccc(Cl)cc1` (centres undefined), 0.0948.
As for `COc1ccc(-c2nnc(-c3cc4ccccc4oc3=O)o2)cc1`, the figure is 0.115.
As for `CCSC1=N/C(=C\c2ccc3c(c2)OCO3)C(=O)S1`, the figure is -0.606.
For the compound `Cc1ccc(S(=O)(=O)NCCCC(=O)C=[N+]=[N-])cc1`, the z-score was 0.393.
As for `CCC(=O)N1CCNC(=O)C1CC(=O)Nc1ccc(C)c(Cl)c1` (centres undefined), the figure is -0.176; as for `CCCC(=O)c1cc2c(cc1NC(=O)c1cccs1)OCCO2`, 0.269.
As for `O=C(/C=C/Nc1ccc(F)cc1F)c1cccs1`, the figure is 0.000815; as for `Cc1onc(-c2ccccc2)c1C(=O)NC(=S)NNC(=O)c1ccc(O)cc1O`, 0.439; as for `NC(=O)C1(N2CCCCC2)CCN(C(=O)CCCn2c(=O)[nH]c3ccsc3c2=O)CC1`, 0.207.
The compound `Cc1ccc2oc(=O)c(/C=C(\O)c3sc(C)nc3C)nc2c1` yielded a z-score of -0.168.
Under `O=C(Cn1c(=O)n(Cc2ccco2)c(=O)c2c3c(sc21)CCCCC3)Nc1ccccc1` stands -0.747; under `Cn1c(=O)c2c(nc(NC3CCCCC3)n2CC(O)COc2ccccc2)n(C)c1=O` (centres undefined), -0.00194; under `COc1ccc(-c2noc(C3CCCN(C(=O)CCc4ccccc4)C3)n2)cc1` (centres undefined), -0.776.
As for `CCCCN(CC)C(=O)c1ccc(Cl)c(Cl)c1`, the figure is 0.066; as for `COc1cc2c(cc1OC)C(C(=O)NCc1cccnc1)C(c1cccnc1)N(C)C2=O` (centres undefined), 0.233.
Under `CCOC(=O)CNC(=O)CSc1nc2cccnc2n1CC` stands 0.216.
On to `Cc1ccc(CC(=O)Nc2nc3c(s2)CCCC3)cc1`, for which the z-score is -0.378.
As for `O=C(COC(=O)Cc1cccc(C(F)(F)F)c1)NCC1CCCO1` (centres undefined), the figure is 0.125; as for `Cn1c(=O)c2cc(S(=O)(=O)N3CCN(c4cccc(C(F)(F)F)c4)CC3)ccc2n(C)c1=O`, -0.272.
Under `COc1ccc(/C=N/NC(=O)c2ccoc2C)cc1COc1ccc(Cl)cc1` stands -0.0725.
Under `CC(NC(=S)Nc1c(Br)cccc1OC(F)F)C(C)(C)C` (centres undefined) stands -2.09.
In the case of `Cc1ccccc1NC(=S)NC(NC(=O)COc1ccccc1)C(Cl)(Cl)Cl` (centres undefined), the z-score was -0.000469.
As to `COc1ccc2oc(C(F)(F)C(F)F)cc(=O)c2c1`, the z-score was found to be 0.141.
`CCn1c(CCNC(=O)c2cccs2)nnc1SCC(=O)Nc1nc(-c2ccccc2)cs1` came in with a z-score of 0.136.
As for `COc1ccc(CNC(=O)CSc2nnc(-c3ccc(NC(C)=O)cc3)n2C)cc1`, the figure is -0.168.
`O=C1CC(Cc2ccc(Cl)cc2)C(=O)N1c1ccccn1` (centres undefined): the z-score was -0.00298.
The compound `O=C(Nc1ccccc1C(=O)N/N=C/c1ccco1)c1ccc(Cl)cc1` gave a z-score of 0.162.
In turn, `C=CCn1c(Cc2csc(N)n2)nnc1SCc1ccc(C(=O)OC)cc1` returned a z-score of 0.116.
Under `CCCCCOCC1CC(C/C(C)=N/Nc2nc(-c3ccccc3)cs2)C(=O)O1` (centres undefined) stands 0.38; under `CC(C)C1NC(=S)N(Cc2ccccc2)C1=O` (centres undefined), 0.0275; under `COc1ccccc1/C=C/C1(C(=O)NC2CCCC2)CC(=O)N1c1ccc(C)cc1` (centres undefined), 0.482.
As for `Cc1nn2c(-c3cccc(NC(=O)CN4CCOCC4)c3)nnc2c2ccccc12`, the figure is -0.149; as for `O=C(COc1ccc(/C=N/NC(=O)c2cc3ccccc3o2)cc1Cl)Nc1ccccc1`, 0.112.
`O=C(O)c1ccccc1OCCOc1ccccc1` had a z-score of -0.0988.
As for `O=C(Nc1cc(C(F)(F)F)ccc1Cl)C(Sc1nnc(-c2cccs2)o1)c1ccccc1` (centres undefined), the figure is -0.0374; as for `Nc1nc(SCC(=O)Nc2ccccc2-c2ccccc2)n[nH]1`, -0.0745.
Under `CCOP(=O)(O)c1ccccc1OCCOCCOc1ccccc1P(=O)(O)OCC` stands 0.516; under `Cc1cc(C)c2c(N=NN(C)C)[nH]nc2n1`, -0.0768.
As for `CC(C(=O)Nc1ncn[nH]1)N1C(=O)c2ccccc2C1=O` (centres undefined), the figure is -0.00411; as for `Cc1ccc(CNc2cnccn2)cc1`, -0.094.
`Cc1cccc(C)c1NC(=O)CSc1nnc(Cc2ccccc2)o1` displayed a z-score of -0.104.
Under `CN(CC(=O)NCc1ccc(Cl)cc1)S(=O)(=O)c1cccc2cccnc12` stands -0.364.
Under `O=C1NC(c2ccc(-c3ccccc3[N+](=O)[O-])o2)C(C(=O)c2ccc(F)cc2)C(O)(C(F)(F)F)N1` (centres undefined) stands 0.963; under `Cn1c(Cl)c(/C=N/OC(=O)c2ccc(Cl)cc2)c2ccccc21`, 0.0488; under `CC(=O)c1cc(NC(=O)c2cccc(C(F)(F)F)c2)c(=O)oc1/C=C/N(C)C`, -0.214.
Under `CCCOc1ccc(N2C(=O)CC(N(C(=O)c3ccco3)c3ccc(OCCC)cc3)C2=O)cc1` (centres undefined) stands 0.186.
On to `C/C(=C\C(=O)c1ccc(Br)cc1)NCc1ccc2c(c1)OCO2`, for which the z-score was -0.222.
`Cc1cc(C)c(C#N)c(SCc2ccc3c(c2)OCO3)n1` registered a z-score of -0.00435.
Under `Brc1ccc(-c2nc(-c3ccccc3)no2)o1` stands 0.0883; under `O=C(COC(=O)c1ccc(Br)o1)Nc1cccc(S(=O)(=O)N2CCCCCC2)c1`, 0.698; under `CCCC(=O)Nc1ccc(-c2cnc(-c3ccc(NC(=O)CCC)cc3)nc2)cc1`, 1.35.
`COC(=O)c1cnn(C(=O)c2cc(OC)ccc2Br)c1N` had a z-score of -0.687.
Compound `CCOC(=O)c1cccc(NC(=O)C2CCCN(S(=O)(=O)c3cnc[nH]3)C2)c1` (centres undefined) displayed a z-score of -0.163.
Under `COc1ccc(C)cc1NC(=O)c1ccccc1NS(=O)(=O)c1cccc2cccnc12` stands 2.02; under `CN1CCN(C(=O)CN(c2cc(C(F)(F)F)ccc2Cl)S(C)(=O)=O)CC1`, 2.63.
As for `COc1ccccc1CNS(=O)(=O)c1c(C)noc1C`, the figure is -0.0268; as for `O=C1OCC(c2ccccc2)=C1c1ccc(S(=O)(=O)N2CCOCC2)s1`, 0.412; as for `CC(NS(=O)(=O)c1ccc(OCC(=O)Nc2cccc([N+](=O)[O-])c2)cc1)c1ccccc1` (centres undefined), -0.26.
In turn, `CCOC(=O)c1ccc(NC(=O)C2CCCN(S(=O)(=O)c3cnc[nH]3)C2)cc1` (centres undefined) displayed a z-score of -0.106.
